Counter-ions that a name gives are not always drawn. Some of the results follow. Single values are uncertain, as repeats are few or missing.
Each compound was assayed on Escherichia coli W3110 (assay: planktonic growth (OD600) relative to untreated control; higher = more growth). Details: 10 µM; 20-24 h; 30 °C; TB.
With `CCOC(=O)[C@H](CCc1ccccc1)N[C@H]1CCc2ccccc2N(CC(=O)O)C1=O` [Benazepril hydrochloride] the planktonic growth was 96%.
With `CCOC(=O)OC(C)OC(=O)[C@@H]1N2C(=O)[C@@H](NC(=O)[C@H](N)c3ccccc3)[C@H]2SC1(C)C` (stereo not given in full) [Bacampicillin hydrochloride] the planktonic growth was 47%.
`CC(C)(C)NC[C@H](O)COc1nsnc1N1CCOCC1` [Timolol maleate salt] showed a planktonic growth of 94%.
For `O=C(Nc1cccc2c(=O)cc(-c3nnn[nH]3)oc12)c1ccc(OCCCCc2ccccc2)cc1` [Pranlukast], the planktonic growth was 112%.
Work on `NCCCC[C@H](N[C@@H](CCc1ccccc1)C(=O)O)C(=O)N1CCC[C@H]1C(=O)O` [Lisinopril] yielded a planktonic growth of 93%.
Work on `CC(C)C(=O)OCC(=O)[C@@]12O[C@H](C3CCCCC3)O[C@@H]1C[C@H]1[C@@H]3CCC4=CC(=O)C=C[C@]4(C)[C@H]3[C@@H](O)C[C@@]12C` [Ciclesonide] yielded a planktonic growth of 104%.
`CC(C)NCC(O)COc1ccc(COCCOC(C)C)cc1` (stereo not given) [Bisoprolol fumarate] was tested, and the planktonic growth was 112%.
With `Nc1nc(=S)c2ncn([C@@H]3O[C@H](CO)[C@@H](O)[C@H]3O)c2[nH]1` [Thioguanosine] the planktonic growth was 82%.
In the case of `O=C1CN2Cc3c(ccc(Cl)c3Cl)N=C2N1` [Anagrelide], the planktonic growth is reported as 104%.
`Nc1nc(F)nc2c1ncn2[C@@H]1O[C@H](CO)[C@@H](O)[C@@H]1O` [Fludarabine] gave a planktonic growth of 38%.
`CC[C@H]1OC(=O)[C@H](C)[C@@H](O[C@H]2C[C@@](C)(OC)[C@@H](O)[C@H](C)O2)[C@H](C)[C@@H](O[C@@H]2O[C@H](C)C[C@H](N(C)C)[C@H]2O)[C@](C)(O)C[C@@H](C)/C(=N\OCOCCOC)[C@H](C)[C@@H](O)[C@]1(C)O` [Roxithromycin] gave a planktonic growth of 53%.
For `Nc1nc(=O)c2nc(CNc3ccc(C(=O)N[C@@H](CCC(=O)O)C(=O)O)cc3)cnc2[nH]1` [Folic acid], the planktonic growth was 96%.
In the case of `CC(=O)N[C@@H](CC(C)C)C(=O)O` [N-Acetyl-L-leucine], the planktonic growth is reported as 92%.
`COc1c(O[C@@H]2O[C@H](CO)[C@@H](O)[C@H](O)[C@H]2O)cc2c(c1OC)-c1ccc(SC)c(=O)cc1[C@@H](NC(C)=O)CC2` [Thiocolchicoside] was tested, and the planktonic growth was 86%.
`CN(C)CCN(Cc1cccs1)c1ccccn1` [Methapyrilene hydrochloride] showed a planktonic growth of 97%.
In the case of `NC(=O)N1c2ccccc2C=Cc2ccccc21` [Carbamazepine], the planktonic growth is reported as 94%.
For `Clc1ccc(C(Cn2ccnc2)OCc2c(Cl)cccc2Cl)c(Cl)c1` (stereo not given) [Isoconazole], the planktonic growth was 97%.
`O=C(Cn1ccnc1[N+](=O)[O-])NCCO` [Etanidazole] showed a planktonic growth of 111%.
In the case of `CC(C)CC(=O)N[C@H](C(=O)N[C@H](C(=O)N[C@@H](CC(C)C)[C@@H](O)CC(=O)N[C@@H](C)C(=O)N[C@@H](CC(C)C)[C@@H](O)CC(=O)O)C(C)C)C(C)C` [Pepstatin A], the planktonic growth is reported as 110%.
`C[C@H](O)C(=O)Nc1c(I)c(C(=O)NC(CO)CO)c(I)c(C(=O)NC(CO)CO)c1I` [Iopamidol] gave a planktonic growth of 106%.
With `CC[C@H]1OC(=O)[C@H](C)[C@@H](O[C@H]2C[C@@](C)(OC)[C@@H](O)[C@H](C)O2)[C@H](C)[C@@H](O[C@@H]2O[C@H](C)C[C@H](N(C)C)[C@H]2O)[C@](C)(O)C[C@@H](C)[C@@H]2N[C@@H](COCCOC)O[C@H]([C@H]2C)[C@]1(C)O` [Dirithromycin] the planktonic growth was 53%.
Compound `O=C1CC2(CCCC2)CC(=O)N1CCCCN1CCN(c2ncccn2)CC1` [Buspirone hydrochloride] has a planktonic growth of 112%.
With `Cc1cc(CC(=O)O)n(C)c1C(=O)c1ccc(Cl)cc1` [Zomepirac sodium salt] the planktonic growth was 87%.
In the case of `O=C(NCC(O)CO)c1c(I)c(C(=O)NCC(O)CO)c(I)c(N(CCO)C(=O)CO)c1I` (stereo not given) [Ioversol], the planktonic growth is reported as 92%.
In the case of `CO/N=C(\C(=O)N[C@@H]1C(=O)N2C(C(=O)O)=C(COC(N)=O)CS[C@H]12)c1ccco1` [Cefuroxime sodium salt], the planktonic growth is reported as 32%.
`Nc1ccc(S(=O)(=O)Nc2ccnn2-c2ccccc2)cc1` [Sulfaphenazole] showed a planktonic growth of 68%.
For `CC1Cc2ccccc2N1NC(=O)c1ccc(Cl)c(S(N)(=O)=O)c1` (stereo not given) [Indapamide], the planktonic growth was 89%.
`CCN1CCC[C@H]1CNC(=O)c1c(OC)ccc(Br)c1OC` [Remoxipride Hydrochloride] was tested, and the planktonic growth was 97%.
Work on `CCN1CCN(c2cc3c(cc2F)c(=O)c(C(=O)O)cn3C2CC2)CC1` [Enrofloxacin] yielded a planktonic growth of 21%.
`Cc1nnc(NS(=O)(=O)c2ccc(N)cc2)s1` [Sulfamethizole] gave a planktonic growth of 65%.
With `O=C(O)COC(=O)Cc1ccccc1Nc1c(Cl)cccc1Cl` [Aceclofenac] the planktonic growth was 91%.
In the case of `Cc1cnc(NC(=O)C2=C(O)c3ccccc3S(=O)(=O)N2C)s1` [Meloxicam], the planktonic growth is reported as 109%.
With `COCCOC(=O)C1=C(C)NC(C)=C(C(=O)OC/C=C/c2ccccc2)C1c1cccc([N+](=O)[O-])c1` (stereo not given) [Cilnidipine] the planktonic growth was 105%.
For `CCCCNc1ccc(C(=O)OCCOCCOCCOCCOCCOCCOCCOCCOCCOC)cc1` [Benzonatate], the planktonic growth was 87%.
`CCn1nc(C(=O)O)c(=O)c2cc3c(cc21)OCO3` [Cinoxacin] gave a planktonic growth of 47%.
`Cc1cc(/C=C/c2ccc3cc(N(C)C)ccc3[n+]2C)c(C)n1-c1ccccc1` [Pyrvinium pamoate] gave a planktonic growth of 101%.
With `CCCc1nc(C)c2c(=O)nc(-c3cc(S(=O)(=O)N4CCN(CC)CC4)ccc3OCC)[nH]n12` [Vardenafil] the planktonic growth was 77%.
`O=C(O)/C=C/c1ccc(Cn2ccnc2)cc1` [Ozagrel hydrochloride] showed a planktonic growth of 95%.
With `C[C@H]1C[C@H]2[C@@H]3CCC4=CC(=O)C=C[C@]4(C)[C@@]3(F)[C@@H](O)C[C@]2(C)[C@@]1(O)C(=O)CO` [Betamethasone] the planktonic growth was 103%.
Compound `Oc1ccc(OCc2ccccc2)cc1` [Monobenzone] has a planktonic growth of 100%.
With `CC(C(=O)O)c1ccc(N2Cc3ccccc3C2=O)cc1` (stereo not given) [Indoprofen] the planktonic growth was 96%.
Work on `CC1=Nc2ccc(Cl)cc2S(=O)(=O)N1` [Diazoxide] yielded a planktonic growth of 107%.
In the case of `C=C1/C(=C\C=C2/CCC[C@]3(C)[C@@H]([C@H](C)/C=C/[C@@H](O)C4CC4)CC[C@@H]23)C[C@@H](O)C[C@@H]1O` [Calcipotriene], the planktonic growth is reported as 97%.
For `Cc1ccc(Cl)c(Nc2ccccc2C(=O)O)c1Cl` [Meclofenamic acid sodium salt monohydrate], the planktonic growth was 103%.
With `O=C(NCCO[N+](=O)[O-])c1cccnc1` [Nicorandil] the planktonic growth was 93%.
In the case of `COC(=O)Nc1nc2ccc(SC(C)C)cc2[nH]1` [Methiazole], the planktonic growth is reported as 91%.
Compound `CN(C)CCOc1ccc(/C(=C(/CCCl)c2ccccc2)c2ccccc2)cc1` [Toremifene] has a planktonic growth of 115%.
With `CCN1CCN(C(=O)N[C@@H](C(=O)N[C@@H]2C(=O)N3C(C(=O)O)=C(CSc4nnnn4C)CS[C@H]23)c2ccc(O)cc2)C(=O)C1=O` [Cefoperazone dihydrate] the planktonic growth was 17%.
For `CC(NCCC(c1ccccc1)c1ccccc1)c1ccccc1` (stereo not given) [Fendiline hydrochloride], the planktonic growth was 93%.
`O=c1[nH]c(=O)n(C2CCCO2)cc1F` (stereo not given) [Tegafur] was tested, and the planktonic growth was 94%.
Compound `Cc1c(N(C)CS(=O)(=O)O)c(=O)n(-c2ccccc2)n1C` [Dipyrone] has a planktonic growth of 105%.
For `CC(C)NC[C@@H](O)COc1cccc2ccccc12` [(R)-Propranolol hydrochloride], the planktonic growth was 93%.
`CCN(CC)CCc1nc(-c2ccccc2)no1` [Oxalamine citrate salt] gave a planktonic growth of 96%.
Work on `CNCC(O)c1ccc(OC(=O)C(C)(C)C)c(OC(=O)C(C)(C)C)c1` (stereo not given) [Dipivefrin hydrochloride] yielded a planktonic growth of 103%.
`CC(C)NCC(O)c1ccc(O)c(O)c1` (single isomer, unassigned; (+)) [(+)-Isoproterenol (+)-bitartrate salt] gave a planktonic growth of 94%.
For `CN1CCN(CCCN2c3ccccc3Sc3ccc(Cl)cc32)CC1` [Prochlorperazine dimaleate], the planktonic growth was 107%.
For `Cc1nc(=O)c2cc(CN(C)c3ccc(C(=O)N[C@@H](CCC(=O)O)C(=O)O)s3)ccc2[nH]1` [Raltitrexed], the planktonic growth was 103%.
`O=c1oc2ccccc2c(O)c1Cc1c(O)c2ccccc2oc1=O` [Dicumarol] gave a planktonic growth of 92%.
`Nc1cc(C(Cl)=C(Cl)Cl)c(S(N)(=O)=O)cc1S(N)(=O)=O` [Clorsulon] was tested, and the planktonic growth was 91%.
`CC[C@H](C)C(=O)O[C@H]1CCC=C2C=C[C@H](C)[C@H](CC[C@@H]3C[C@@H](O)CC(=O)O3)[C@H]21` [Mevastatin] gave a planktonic growth of 104%.
With `COc1c2occc2c(OC)c2c(=O)cc(C)oc12` [Khellin] the planktonic growth was 98%.
`NNc1nncc2ccccc12` [Hydralazine hydrochloride] showed a planktonic growth of 108%.
With `CC(=O)OCC(CCn1cnc2cnc(N)nc21)COC(C)=O` [Famciclovir] the planktonic growth was 102%.
Compound `CN1CCN(c2c(F)cc3c(=O)c(C(=O)O)cn(CCF)c3c2F)CC1` [Fleroxacin] has a planktonic growth of 22%.
`C[C@H](CCC(=O)O)[C@H]1CC[C@H]2[C@@H]3[C@H](O)C[C@@H]4C[C@H](O)CC[C@]4(C)[C@H]3CC[C@]12C` [Chenodiol] was tested, and the planktonic growth was 101%.
`c1ccc([C@H]2CN3CCSC3=N2)cc1` [Levamisole hydrochloride] showed a planktonic growth of 93%.
In the case of `CCC(=O)O[C@]1(C(=O)CCl)[C@@H](C)C[C@H]2[C@@H]3CCC4=CC(=O)C=C[C@]4(C)[C@@]3(F)[C@@H](O)C[C@@]21C` [Clobetasol propionate], the planktonic growth is reported as 89%.
With `O=S(=O)(O)c1cc(O)ccc1O` [Ethamsylate] the planktonic growth was 85%.
With `O=C1OCCN1/N=C/c1ccc([N+](=O)[O-])o1` [Furazolidone] the planktonic growth was 68%.
For `C[C@H]1C[C@@H]2[C@H]([C@@H](O)C[C@@]3(C)[C@H]2CC[C@]3(O)C(=O)CO)[C@@]2(C)C=CC(=O)C=C12` [Methylprednisolone, 6-alpha], the planktonic growth was 95%.

— the supplement of paper PMC7580552
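Note: stationary (unshaken) cultures in 96-well plates, started at OD600 0.05 from mid-exponential cells, with compounds supplied from DMSO stocks.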
